Measured values published in patent US20090155268A1 (VEGENICS, published 2009).

T1: VEGF-A 109 (minimal VEGF-A fragment with 109 residues) (radiolabelled (printed as tritiated; ligand solution may be supernatant of metabolically labeled 293T cells))
T1 chain: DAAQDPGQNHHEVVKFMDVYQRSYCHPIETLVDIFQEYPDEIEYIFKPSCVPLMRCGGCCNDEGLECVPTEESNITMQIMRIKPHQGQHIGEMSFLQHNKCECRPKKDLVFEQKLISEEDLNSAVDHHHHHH

T2: VEGF-C 109 (minimal VEGF-C fragment with 109 residues) (radiolabelled (printed as tritiated; ligand solution may be supernatant of metabolically labeled 293T cells))
T2 chain: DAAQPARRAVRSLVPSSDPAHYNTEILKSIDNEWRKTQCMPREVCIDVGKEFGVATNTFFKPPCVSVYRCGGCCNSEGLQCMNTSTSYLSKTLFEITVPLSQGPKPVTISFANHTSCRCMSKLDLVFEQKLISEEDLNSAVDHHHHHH

B1: R-2 J with CD33 Signal Peptide (VEGFR-2 fragment / human IgG Fc fusion) (Fc fusion)
chain: MDKLASVQDYRSPFIASVSDQHGVVYITENKNKTVVIPCLGSISNLNVSLCARYPEKRFVPDGNRISWDSKKGFTIPSYMISYAGMVFCEAKINDESYQSIMYIVVVVGYRIYDVVLSPSHDPIEGRGGGGGD[gap - human IgG1 Fc with changes]
notes: CD33 signal peptide in the expression construct; not shown: human IgG Fc fragment fused to the C-terminus
B2: R-2 A with CD33 Signal Peptide (VEGFR-2 D1-3 / human IgG Fc fusion) (Fc fusion)
chain: MDKLASGSLPSVSLDLPRLSIQKDILTIKANTTLQITCRGQRDLDWLWPNNQSGSEQRVEVTECSDGLFCKTLTIPKVIGNDTGAYKCFYRETDLASVIYVYVQDYRSPFIASVSDQHGVVYITENKNKTVVIPCLGSISNLNVSLCARYPEKRFVPDGNRISWDSKKGFTIPSYMISYAGMVFCEAKINDESYQSIMYIVVVVGYRIYDVVLSPSHGIELSVGEKLVLNCTARTELNVGIDFNWEYPSSKHQHKKLVNRDLKTQSGSEMKKFLSTLTIDGVTRSDQGLYTCAASSGLMTKKNSTFVRVHEDPIEGRGGGGGD[gap - human IgG1 Fc with changes]
notes: Used as conditioned medium of 293T cells; Heterologous CD33 signal peptide in the expression construct; also called VEGFR-2/IgG D1-3 construct; not shown: human IgG Fc fragment fused to the C-terminus (Signal pIgplus vector)
B3: R-2 H with CD33 Signal Peptide (VEGFR-2 fragment / human IgG Fc fusion) (Fc fusion)
chain: MDKLASVQDYRSPFIASVSDQHGVVYITENKNKTVVIPCLGSISNLNVSLCARYPEKRFVPDGNRISWDSKKGFTIPSYMISYAGMVFCEAKINDESYQSIMYIVVVVGDPIEGRGGGGGD[gap - human IgG1 Fc with changes]
notes: as for B1
B4: R-2 B with CD33 Signal Peptide (VEGFR-2 fragment / human IgG Fc fusion) (Fc fusion)
chain: MDKLASGTLEDGRGSLPSVSLDLPRLSIQKDILTIKANTTLQITCRGQRDLDWLWPNNQSGSEQRVEVTECSDGLFCKTLTIPKVIGNDTGAYKCFYRETDLASVIYVYVQDYRSPFIASVSDQHGVVYITENKNKTVVIPCLGSISNLNVSLCARYPEKRFVPDGNRISWDSKKGFTIPSYMISYAGMVFCEAKINDESYQSIMYIVVVVGDPIEGRGGGGGD[gap - human IgG1 Fc with changes]
notes: as for B1
B5: R-2 F with CD33 Signal Peptide (VEGFR-2 fragment / human IgG Fc fusion) (Fc fusion)
chain: MDKLASGTLEDGRGSLPSVSLDLPRLSIQKDILTIKANTTLQITCRGQRDLDWLWPNNQSGSEQRVEVTECSDGLFCKTLTIPKVIGNDTGAYKCFYRETDLASVIYVYVQDPIEGRGGGGGD[gap - human IgG1 Fc with changes]
notes: as for B1
B6: R-2 L with CD33 Signal Peptide (VEGFR-2 fragment / human IgG Fc fusion) (Fc fusion)
chain: MDKLASYRIYDVVLSPSHGIELSVGEKLVLNCTARTELNVGIDFNWEYPSSKHQHKKLVNRDLKTQSGSEMKKFLSTLTIDGVTRSDQGLYTCAASSGLMTKKNSTFVRVHEDPIEGRGGGGGD[gap - human IgG1 Fc with changes]
notes: as for B1
B7: R-2 I with CD33 Signal Peptide (VEGFR-2 fragment / human IgG Fc fusion) (Fc fusion)
chain: MDKLASVQDYRSPFIASVSDQHGVVYITENKNKTVVIPCLGSISNLNVSLCARYPEKRFVPDGNRISWDSKKGFTIPSYMISYAGMVFCEAKINDESYQSIMYIVVVVGYRIYDVDPIEGRGGGGGD[gap - human IgG1 Fc with changes]
notes: as for B1
B8: R-2 G with CD33 Signal Peptide (VEGFR-2 fragment / human IgG Fc fusion) (Fc fusion)
chain: MDKLASVQDYRSPFIASVSDQHGVVYITENKNKTVVIPCLGSISNLNVSLCARYPEKRFVPDGNRISWDSKKGFTIPSYMISYAGMVFCEAKINDESYQSIMYIVVVVGYRIYDVVLSPSHGIELSVGEKLVLNCTARTELNVGIDFNWEYPSSKHQHKKLVNRDLKTQSGSEMKKFLSTLTIDGVTRSDQGLYTCAASSGLMTKKNSTFVRVHEDPIEGRGGGGGD[gap - human IgG1 Fc with changes]
notes: as for B1
B9: R-2 K with CD33 Signal Peptide (VEGFR-2 fragment / human IgG Fc fusion) (Fc fusion)
chain: MDKLASVQDYRSPFIASVSDQHGVVYITENKNKTVVIPCLGSISNLNVSLCARYPEKRFVPDGNRISWDSKKGFTIPSYMISYAGMVFCEAKINDESYQSIMYIVVVVGYRIYDVVLSPSHGIELSVGEKDPIEGRGGGGGD[gap - human IgG1 Fc with changes]
notes: as for B1
B10: R-3 J (VEGFR-3 domain 2, Ig domain 1 deleted / human IgG Fc fusion) (Fc fusion)
chain: YSMTPPTLNITEESHVRDFEQPFINKPDTLLVNRKDAMWVPCLVSIPGLNVTLRSQSSVLWPDGQEVVWDDRRGMLVSTPLLHDALYLQCETTWGDQDFLSNPFLVHITGNELYDIQLLPRKSLELLVGEKDPIEGRGGGGGD[gap - human IgG1 Fc with changes]
notes: Range starts at position 1 (native signal peptide in the entry); not shown: human IgG Fc fragment fused to the C-terminus
B11: R-3 G (VEGFR-3 D1-3 / human IgG Fc fusion) (Fc fusion)
chain: YSMTPPTLNITEESHVIDTGDSLSISCRGQHPLEWAWPGAQEAPATGDKDSEDTGVVRDCEGTDARPYCKVLLLHEVHANDTGSYVCYYKYIKARIEGTTAASSYVFVRDFEQPFINKPDTLLVNRKDAMWVPCLVSIPGLNVTLRSQSSVLWPDGQEVVWDDRRGMLVSTPLLHDALYLQCETTWGDQDFLSNPFLVHITGNELYDIQLLPRKSLELLVGEKLVLNCTVWAEFNSGVTFDWDYPGKQAERGKWVPERRSQQTHTELSSILTIHNVSQHDLGSYVCKANNGIQRFRESTEVIVHEDPIEGRGGGGGD[gap - human IgG1 Fc with changes]
notes: as for B10
B12: R-3 D (VEGFR-3 fragment / human IgG Fc fusion) (Fc fusion)
chain: YSMTPPTLNITEESHVIDTGDSLSISCRGQHPLEWAWPGAQEAPATGDKDSEDTGVVRDCEGTDARPYCKVLLLHEVHANDTGSYVCYYKYIKARIEGTTAASSYVFVRDFEQPFINKPDTLLVNRKDAMWVPCLVSIPGLNVTLRSQSSVLWPDGQEVVWDDRRGMLVSTPLLHDALYLQCETTWGDQDFLSNPFLVHITGDPIEGRGGGGGD[gap - human IgG1 Fc with changes]
notes: as for B10
B13: R-3 K (VEGFR-3 fragment, Ig domain 1 deleted / human IgG Fc fusion) (Fc fusion)
chain: YSMTPPTLNITEESHVRDFEQPFINKPDTLLVNRKDAMWVPCLVSIPGLNVTLRSQSSVLWPDGQEVVWDDRRGMLVSTPLLHDALYLQCETTWGDQDFLSNPFLVHITGNELADPIEGRGGGGGD[gap - human IgG1 Fc with changes]
notes: as for B10
B14: R-3 H (VEGFR-3 fragment / human IgG Fc fusion) (Fc fusion)
chain: YSMTPPTLNITEESHVIDTGDSLSISCRGQHPLEWAWPGAQEAPATGDKDSEDTGVVRDCEGTDARPYCKVLLLHEVHANDTGSYVCYYKYIKARIEGTTAASSYVFVRDPIEGRGGGGGD[gap - human IgG1 Fc with changes]
notes: as for B10
B15: R-3 B with CD33 Signal Peptide (VEGFR-3 fragment / human IgG Fc fusion) (Fc fusion)
chain: MDKLPFINKPDTLLVNRKDAMWVPCLVSIPGLNVTLRSQSSVLWPDGQEVVWDDRRGMLVSTPLLHDALYLQCETTWGDQDFLSNPFLVHITGDPIEGRGGGGGD[gap - human IgG1 Fc with changes]
notes: as for B1
B16: R-3 I (VEGFR-3 domains 2 and 3, Ig domain 1 deleted / human IgG Fc fusion) (Fc fusion)
chain: YSMTPPTLNITEESHVRDFEQPFINKPDTLLVNRKDAMWVPCLVSIPGLNVTLRSQSSVLWPDGQEVVWDDRRGMLVSTPLLHDALYLQCETTWGDQDFLSNPFLVHITGNELYDIQLLPRKSLELLVGEKLVLNCTVWAEFNSGVTFDWDYPGKQAERGKWVPERRSQQTHTELSSILTIHNVSQHDLGSYVCKANNGIQRFRESTEVIVHEDPIEGRGGGGGD[gap - human IgG1 Fc with changes]
notes: as for B10
B17: R-3 C (VEGFR-3 fragment / human IgG Fc fusion) (Fc fusion)
chain: YSMTPPTLNITEESHVIDTGDSLSISCRGQHPLEWAWPGAQEAPATGDKDSEDTGVVRDCEGTDARPYCKVLLLHEVHANDTGSYVCYYKYIKARIEGTTAASSYVFVRDFEQPFINKPDTLLVNRKDAMWVPCLVSIPGLNVTLRSQSSVLWPDGQEVVWDDRRGMLVSTPLLHDALYLQCETTWGDQDFLSNPFLVHITGNELADPIEGRGGGGGD[gap - human IgG1 Fc with changes]
notes: Range starts at position 1, so the native signal peptide is in the entry; not shown: human IgG Fc fragment fused to the C-terminus

Molecular target: T1, VEGF-A 109 (minimal VEGF-A fragment …)
Assay: precipitation of radiolabelled VEGF-A 109 by the Fc fusion with protein A sepharose, SDS-PAGE autoradiography
Protocol: (§1) Either Tritiated VEGF-A 109 or VEGF-C 109 was used in a given binding experiment. Ligand in solution was precipitated by mixing 175 μl of ligand solution with 100 μl binding mix at 4° C. overnight, with agitation. The ligand solution may be the supernatant of metabolically labeled 293T cells. The binding mixes used for the receptor binding analysis were as follows: for VEGFR-1 binding assays, the binding mix was phosphate buffered saline (PBS) containing 1.5% BSA, 0.06% Tween 20, 3 μg/ml heparin and 400 ng/ml VEGFR-1-Fc fusion protein (100 μl of this binding mix was added to 200 μl of ligand solution). For VEGFR-2 binding assays, the binding mix was 82% conditioned cell supernatant from 293T cells transiently expressing VEGFR-2-Fc fusion protein in mixture with 18% of a PBS solution that contained 5% BSA, 0.2% Tween 20, and 10 μg/ml heparin (250 μl of binding mix was added to 200 μl of ligand solution). For VEGFR-3 binding assays, the binding mix was 82% conditioned cell supernatant from 293T cells transiently expressing VEGFR-3-Fc fusion protein, 18% of PBS containing 5% BSA, 0.2% Tween 20, and 10 μg/ml heparin (250 μl of binding mix was added to 200 μl of ligand solution). To collect precipitated ligand, 50 μl of a 30% protein A sepharose (PAS, Pharmacia) slurry in PBS was added and incubated under agitation for at least 1.5 hr at 4° C. Standard buffer was added to each immunoprecipitation sample and boiled for 5 minutes at 95° C. during which the immunopreciptated proteins become dissociated from the protein A sepharose. After centrifugation, 10 μl of each sample was analyzed on 15% SDS-PAGE under reducing conditions. The gels were dried and exposed for either 12 hours on phosphorimager plates or 4 weeks on X-ray film.

binding result | Binder
no binding | B1
binds | B2
no binding | B3
no binding | B4
no binding | B5
no binding | B6
no binding | B7
binds | B8
no binding | B9

Molecular target: T2, VEGF-C 109 (minimal VEGF-C fragment …)
Assay: precipitation of radiolabelled VEGF-C 109 by the Fc fusion with protein A sepharose, SDS-PAGE autoradiography
Protocol: as §1

binding result | Binder
no binding | B10
binds | B2
binds | B3
binds | B11
binds | B12
no binding | B13
no binding | B14
no binding | B4
no binding | B15
no binding | B5
no binding | B6
no binding | B16
binds | B17
binds | B8
no binding | B9
